# This is one part of the list.
# B1: Epa6 (Candida glabrata), Q6DTM7_CANGB (protein)
# chain: MGSSHHHHHHSSGLVPRGSHMKDDYSSSLSNNNLGWTDPTEFPLGCSPNVTTPKNGLSMELYSYDYLKSGSNPCWDAAYLDPNYPRTGYKSHRLLAKVENVAGNINFYYHAPMGCTSLFDTLPQAYNYRTPLTMTNFTMLLYGYFKPKVTGYHTFTISADDLLFVNFGAGNAFDCCKRESSADDFGNYQAYAVWGSQTAKDDLTVHLDAGLYYPIRIFFNNRDNDGALSLTLKTESDPNPVIDFSDYFYSFDDTKDGCPGLVSYDTS
# Key:
# Experiment in all cases: glycan array binding signal (z-score within array); higher = stronger binding
# Conditions in all cases: glycan notation: IUPAC condensed, linker removed
# [1] = biological target: Neu5Ac(a2-3)Gal(b1-3)GlcNAc6S
# Procedure, shortened: (§1)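 Glycan array data came from 3228 arrays in the Consortium for Functional Glycomics database, and only arrays with an available protein sequence were kept. Glycan names were put into IUPAC-condensed notation, and columns mapping to the same glycan were averaged. The binding signal is a within-array Z-score, averaged across arrays of one protein sequence run at different concentrations or buffers and across linkers. A negative Z-score can be read as non-binding.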
# [2] = biological target: Neu5Ac(a2-3)Gal(b1-3)[Fuc(a1-4)]GlcNAc
# Procedure, shortened: as §1
# [3] = biological target: Neu5Ac(a2-3)Gal(b1-3)[Fuc(a1-4)]GlcNAc(b1-3)Gal(b1-3)[Fuc(a1-4)]GlcNAc
# Procedure, shortened: as §1
# [4] = biological target: Neu5Ac(a2-3)Gal(b1-3)[Fuc(a1-4)]GlcNAc(b1-3)Gal(b1-4)[Fuc(a1-3)]GlcNAc
# Procedure, shortened: as §1
# [5] = biological target: Neu5Ac(a2-3)Gal(b1-3)[GlcNAc(b1-6)]GalNAc
# Procedure, shortened: as §1
# [6] = biological target: Neu5Ac(a2-3)Gal(b1-3)[Neu5Ac(a2-6)]GalNAc
# Procedure, shortened: as §1
# [7] = biological target: Neu5Ac(a2-3)Gal(b1-3)[Neu5Ac(a2-6)]GlcNAc(b1-3)[Fuc(a1-3)[Gal(b1-4)]GlcNAc(b1-6)]Gal(b1-4)Glc
# Procedure, shortened: as §1
# [8] = biological target: Neu5Ac(a2-3)Gal(b1-3)]Neu5Ac(a2-3)Gal(b1-4)]GlcNAc
# Procedure, shortened: as §1
# Neu5Ac(a2-3)Gal(b1-4)Glc = biological target: Neu5Ac(a2-3)Gal(b1-4)Glc
# Procedure, shortened: as §1
# [9] = biological target: Neu5Ac(a2-3)Gal(b1-4)GlcNAc
# Procedure, shortened: as §1
# [10] = biological target: Neu5Ac(a2-3)Gal(b1-4)GlcNAc(b1-2)Man
# Procedure, shortened: as §1
# [11] = biological target: Neu5Ac(a2-3)Gal(b1-4)GlcNAc(b1-2)Man(a1-3)[GlcNAc(b1-4)][Neu5Ac(a2-3)Gal(b1-4)GlcNAc(b1-2)Man(a1-6)]Man(b1-4)GlcNAc(b1-4)GlcNAc
# Procedure, shortened: as §1
# [12] = biological target: Neu5Ac(a2-3)Gal(b1-4)GlcNAc(b1-2)Man(a1-3)[Neu5Ac(a2-3)Gal(b1-4)GlcNAc(b1-2)Man(a1-6)]Man(b1-4)GlcNAc(b1-4)GlcNAc
# Procedure, shortened: as §1
# [13] = biological target: Neu5Ac(a2-3)Gal(b1-4)GlcNAc(b1-2)Man(a1-3)[Neu5Ac(a2-3)Gal(b1-4)GlcNAc(b1-2)Man(a1-6)]Man(b1-4)GlcNAc(b1-4)[Fuc(a1-6)]GlcNAc
# Procedure, shortened: as §1
# [14] = biological target: Neu5Ac(a2-3)Gal(b1-4)GlcNAc(b1-2)Man(a1-3)[Neu5Ac(a2-6)Gal(b1-4)GlcNAc(b1-2)Man(a1-6)]Man(b1-4)GlcNAc(b1-4)GlcNAc
# Procedure, shortened: as §1
# [15] = biological target: Neu5Ac(a2-3)Gal(b1-4)GlcNAc(b1-2)[Neu5Ac(a2-3)Gal(b1-4)GlcNAc(b1-4)]Man(a1-3)[GlcNAc(b1-4)][Neu5Ac(a2-3)Gal(b1-4)GlcNAc(b1-2)[Neu5Ac(a2-3)Gal(b1-4)GlcNAc(b1-6)]Man(a1-6)]Man(b1-4)GlcNAc(b1-4)GlcNAc
# Procedure, shortened: as §1
# [16] = biological target: Neu5Ac(a2-3)Gal(b1-4)GlcNAc(b1-2)[Neu5Ac(a2-3)Gal(b1-4)GlcNAc(b1-4)]Man(a1-3)[GlcNAc(b1-4)][Neu5Ac(a2-3)Gal(b1-4)GlcNAc(b1-4)Man(a1-6)]Man(b1-4)GlcNAc(b1-4)GlcNAc
# Procedure, shortened: as §1
# [17] = biological target: Neu5Ac(a2-3)Gal(b1-4)GlcNAc(b1-2)[Neu5Ac(a2-3)Gal(b1-4)GlcNAc(b1-6)]Man(a1-6)[Neu5Ac(a2-3)Gal(b1-4)GlcNAc(b1-2)Man(a1-3)]Man(b1-4)GlcNAc(b1-4)GlcNAc
# Procedure, shortened: as §1
# [18] = biological target: Neu5Ac(a2-3)Gal(b1-4)GlcNAc(b1-2)[Neu5Ac(a2-3)Gal(b1-4)GlcNAc(b1-6)]Man(a1-6)[Neu5Ac(a2-3)Gal(b1-4)GlcNAc(b1-2)Man(a1-3)][GlcNAc(b1-4)]Man(b1-4)GlcNAc(b1-4)GlcNAc
# Procedure, shortened: as §1
# [19] = biological target: Neu5Ac(a2-3)Gal(b1-4)GlcNAc(b1-3)Gal
# Procedure, shortened: as §1
# [20] = biological target: Neu5Ac(a2-3)Gal(b1-4)GlcNAc(b1-3)Gal(b1-3)GlcNAc
# Procedure, shortened: as §1
# [21] = biological target: Neu5Ac(a2-3)Gal(b1-4)GlcNAc(b1-3)Gal(b1-4)GlcNAc
# Procedure, shortened: as §1
# [22] = biological target: Neu5Ac(a2-3)Gal(b1-4)GlcNAc(b1-3)Gal(b1-4)GlcNAc(b1-2)Man(a1-3)[Neu5Ac(a2-3)Gal(b1-4)GlcNAc(b1-3)Gal(b1-4)GlcNAc(b1-2)Man(a1-6)]Man(b1-4)GlcNAc(b1-4)GlcNAc
# Procedure, shortened: as §1
# [23] = biological target: Neu5Ac(a2-3)Gal(b1-4)GlcNAc(b1-3)Gal(b1-4)GlcNAc(b1-3)Gal(b1-4)GlcNAc
# Procedure, shortened: as §1
# [24] = biological target: Neu5Ac(a2-3)Gal(b1-4)GlcNAc(b1-3)Gal(b1-4)GlcNAc(b1-3)Gal(b1-4)GlcNAc(b1-2)Man(a1-3)[Neu5Ac(a2-3)Gal(b1-4)GlcNAc(b1-3)Gal(b1-4)GlcNAc(b1-3)Gal(b1-4)GlcNAc(b1-2)Man(a1-6)]GalNAc
# Procedure, shortened: as §1
# [25] = biological target: Neu5Ac(a2-3)Gal(b1-4)GlcNAc(b1-3)Gal(b1-4)GlcNAc(b1-3)GalNAc
# Procedure, shortened: as §1
# [26] = biological target: Neu5Ac(a2-3)Gal(b1-4)GlcNAc(b1-3)Gal(b1-4)GlcNAc(b1-3)[Neu5Ac(a2-3)Gal(b1-4)GlcNAc(b1-3)Gal(b1-4)GlcNAc(b1-6)]GalNAc
# Procedure, shortened: as §1
# [27] = biological target: Neu5Ac(a2-3)Gal(b1-4)GlcNAc(b1-3)Gal(b1-4)GlcNAc(b1-6)[Gal(b1-3)]GalNAc
# Procedure, shortened: as §1
# [28] = biological target: Neu5Ac(a2-3)Gal(b1-4)GlcNAc(b1-3)Gal(b1-4)[Fuc(a1-3)]GlcNAc
# Procedure, shortened: as §1
# [29] = biological target: Neu5Ac(a2-3)Gal(b1-4)GlcNAc(b1-3)GalNAc
# Procedure, shortened: as §1
binder,measurement,setting,value
B1,glycan array binding signal (z-score),[1],-0.308
same,glycan array binding signal (z-score),[2],-0.329
same,glycan array binding signal (z-score),[3],-0.298
same,glycan array binding signal (z-score),[4],-0.315
same,glycan array binding signal (z-score),[5],-0.316
same,glycan array binding signal (z-score),[6],-0.273
same,glycan array binding signal (z-score),[7],-0.276
same,glycan array binding signal (z-score),[8],-0.32
same,glycan array binding signal (z-score),Neu5Ac(a2-3)Gal(b1-4)Glc,-0.3
same,glycan array binding signal (z-score),[9],-0.313
same,glycan array binding signal (z-score),[10],-0.24
same,glycan array binding signal (z-score),[11],-0.309
same,glycan array binding signal (z-score),[12],-0.306
same,glycan array binding signal (z-score),[13],-0.308
same,glycan array binding signal (z-score),[14],-0.32
same,glycan array binding signal (z-score),[15],-0.344
same,glycan array binding signal (z-score),[16],-0.343
same,glycan array binding signal (z-score),[17],-0.297
same,glycan array binding signal (z-score),[18],-0.332
same,glycan array binding signal (z-score),[19],-0.336
same,glycan array binding signal (z-score),[20],-0.293
same,glycan array binding signal (z-score),[21],-0.308
same,glycan array binding signal (z-score),[22],-0.189
same,glycan array binding signal (z-score),[23],-0.315
same,glycan array binding signal (z-score),[24],-0.23
same,glycan array binding signal (z-score),[25],-0.309
same,glycan array binding signal (z-score),[26],-0.263
same,glycan array binding signal (z-score),[27],0.082
same,glycan array binding signal (z-score),[28],-0.304
same,glycan array binding signal (z-score),[29],-0.245

# Reference: the supplement of paper PMC8728848
